According to PubChem BioAssay AID924 (National Center for Advancing Translational Sciences (NCATS), 2007):
In all, about 130,000 compounds went through this assay and about 1,200 (0.92%) were called active. The shares of active, inactive and inconclusive entries below differ from those in the screen. The call rests on the fitted dose curve; in most records, active means well fitted cell-killing curve with a large enough effect; inconclusive means small, poorly fitted or top-dose-only effect; inactive means no such curve, though single readings can be large or run the other way. Where the call is inconclusive, the potency comes from a doubtful curve fit.
Potency means the concentration at half of the fitted maximal effect; tags describe the fitted curve by direction and shape.

Assay: qHTS Screen for Compounds that Selectively Target Cancer Cells with p53 Mutations: Cytotoxicity of p53ts Cells at the Permissive Temperature; further: nearly all actives have a fitted effect of over 55% in size;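 on activity change, negative = cytotoxicity: 0% = DMSO and -100% = full killing by reference compound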
Settings: H1299-p53A138V at 32C, ATP luminescence viability, 24 h; activity change, negative = cytotoxicity: at 46.1 µM (top of the series)
How it was run: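 Viability by ATPlite luminescence after 24 h compound treatment (up to 46 uM) at the permissive 32C. Cells are H1299 carrying p53 A138V. Scale runs from DMSO basal to 100 uM tamoxifen as full kill; AC50 from Hill fits.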
With `COC(=O)c1ccc(NC(=O)CSc2ccc(-c3sc(-c4ccccc4)nc3C)nn2)cc1` the Potency was “inactive”. With `COC(=O)c1cccc(C(=O)Nc2ccc(C)cc2)n1` the Potency was inconclusive: 12.6 µM [cytotoxic, partial curve]. With `CCCCn1c(=N)n(CCCOc2ccc(F)cc2)c2ccccc21` the Potency was inconclusive: 22.4 µM [cytotoxic, single point]. With `COc1ccc(-c2nc3sc(CCNC(=O)c4ccco4)c(C)n3n2)cc1` the Potency was inconclusive: 11.2 µM [cytotoxic, partial curve]. In the case of `CCS(=O)(=O)Nc1ccc(-c2cn3ccsc3n2)cc1`, the Potency is reported as inconclusive: 10 µM [cytotoxic, partial curve]. In the case of `Cc1cccc(OCc2ccc(-c3nc(C#N)c(NCc4cccnc4)o3)o2)c1`, the Potency is reported as inconclusive: 6.31 µM [cytotoxic, single point]. With `O=C(CSc1nc(-c2cccc(F)c2)[nH]c1-c1ccccc1)Nc1ccc2c(c1)OCCO2` the Potency was inconclusive: 12.6 µM [cytotoxic, partial curve]. In the case of `CN1CCN(CCC(=O)Nc2ccc3c(c2)OCO3)CC1`, the Potency is reported as inconclusive: 20 µM [cytotoxic, partial curve, poor fit]. For `O=C(Nc1cccc(O)c1)c1noc2c1CCc1ccccc1-2`, the Potency was active: 3.98 µM. With `O=C(COC(=O)c1cccs1)c1ccc2c(c1)OCCO2` the Potency was inconclusive: 25.1 µM [cytotoxic, single point]. For `Cc1ccc(-c2nnn3c2nc(NCC(C)c2ccccc2)c2ccccc23)cc1` (stereo not drawn), the Potency was inconclusive: 12.6 µM [cytotoxic, single point]. With `O=C(CN1C(=O)COc2ccc(S(=O)(=O)NC3CCCC3)cc21)Nc1ccc(Cl)cc1` the Potency was “inactive”. With `Cc1ccc(C)c(NC(=O)Cn2c(=O)n(CC3CCCO3)c(=O)c3ccccc32)c1` (stereo not drawn) the Potency was “inactive”. For `COc1ccc(NC(=O)Nc2cc(C)ccn2)cc1`, the Potency was active: 7.94 µM. For `COc1ccc(OCCSc2ncccn2)cc1`, the Potency was inconclusive: 12.6 µM [cytotoxic, single point]. With `Cc1ccccc1OCC(=O)Nc1ccc(N2CCN(C(=O)C(C)C)CC2)c(Cl)c1` the Potency was inconclusive: 20 µM [cytotoxic, single point]. With `CCSC1(SCC)N=C(N)C2(C#N)C(c3ccc(OC)c(OC)c3OC)C12C#N` (stereo not drawn) the Potency was inconclusive: 10 µM [cytotoxic, partial curve]. For `c1ccc(CNc2nc(-c3cccnc3)nc3ccccc23)cc1`, the Potency was inconclusive: 25.1 µM [cytotoxic, single point]. With `CCCCOC(=O)c1cccc(NC(=O)c2cc3ccccc3o2)c1` the Potency was inconclusive: 15.8 µM [cytotoxic, partial curve]. For `CCc1ccc(NC(=O)CSc2nc3n[nH]c(C)c3c(=N)n2-c2cccc(OC)c2)cc1`, the Potency was inconclusive: 6.31 µM [cytotoxic, partial curve]. For `O=C(NCCSc1ccccc1)c1ccccc1`, the Potency was “inactive”. For `O=C(NCc1ccccc1)c1nc(S(=O)(=O)Cc2ccccc2)ncc1Cl`, the Potency was inconclusive: 25.1 µM [cytotoxic, single point]. With `Cc1ccccc1C(=O)Nc1c(C)nc(Nc2ccccc2)nc1Nc1ccccc1` the Potency was inconclusive: 10 µM [cytotoxic, partial curve, poor fit]. With `CCOc1ccccc1N1CC(c2nc3ccccc3n2Cc2c(C)cc(C)cc2C)CC1=O` (stereo not drawn) the Potency was inconclusive: 31.6 µM [cytotoxic, single point]. For `Cc1cccc(C(=O)Nc2c(C(=O)NCc3ccc(Cl)cc3)sc3nc(C)cc(C)c23)c1`, the Potency was inconclusive: 25.1 µM [cytotoxic, single point]. With `COc1ccc(OC)c(CCNC(=O)c2cnn(-c3ccccc3Cl)c2C2CCN(C(=O)OC(C)(C)C)CC2)c1` the Potency was “inactive”. For `CCC(C)(C)NC(=O)CN(Cc1ccc2c(c1)OCO2)C(=O)CCC(=O)Nc1ccccn1`, the Potency was inconclusive: 8.91 µM [cytotoxic, partial curve]. For `Cn1cc(C2=C(c3cn(CCCSC(=N)N)c4ccccc34)C(=O)NC2=O)c2ccccc21`, the Potency was inconclusive: 31.6 µM [cytotoxic, single point]. With `COC(=O)c1ccc(NC(=O)N2CCN(Cc3cc(=O)n4nc(-c5ccc(C)cc5)sc4n3)CC2)cc1` the Potency was “inactive”. For `COc1ccc(C(=O)Oc2ccc(/C=N/O)cc2)cc1`, the Potency was “inactive”. In the case of `C=CCNc1ncnc2c1ncn2C1OC(CO)C(O)C1O` (stereo not drawn), the Potency is reported as inconclusive: 20 µM [cytotoxic, single point]. With `COc1ccc(C(=O)Nc2ccc3c(c2)CCCN3C(=O)c2cccs2)c(OC)c1` the Potency was inconclusive: 35.5 µM [cytotoxic, single point]. In the case of `O=C(NCCc1ccccc1Cl)c1ccc2c(=O)n(-c3ccccc3)c(=O)[nH]c2c1`, the Potency is reported as inconclusive: 15.8 µM [cytotoxic, single point]. For `C[C@@]12C[C@H](O)[C@@H]3[C@H](CCC4=CC(=O)CC[C@]43C)[C@H]1CC[C@@H]2c1csc(N)n1`, the activity change, negative = cytotoxicity was inactive: 1.04% [at 9.22 µM]. In the case of `CCOc1ccccc1CN1CCc2nc(Nc3ccc4c(c3)OCCO4)ncc2C1`, the Potency is reported as “inactive”. In the case of `COc1ccc(-n2ncc3c(NCc4ccco4)ncnc32)cc1`, the Potency is reported as inconclusive: 15.8 µM [cytotoxic, single point]. With `CCOC(=O)Cc1c(C)nc2c(-c3cccc(Br)c3)c[nH]n2c1=O` the Potency was inconclusive: 12.6 µM [cytotoxic, single point]. In the case of `C#CCSc1nnc(-c2ccc(C)cc2)o1`, the Potency is reported as inconclusive: 22.4 µM [cytotoxic, single point]. With `COC(=O)Cc1c(C)nc2nc(-c3ccc(C)cc3)[nH]n2c1=O` the Potency was active: 10 µM. With `O=C(NCCc1ccc(Cl)cc1)C1CCN(C(=O)c2sccc2-n2cccc2)CC1` the Potency was “inactive”. With `Clc1ccc(-c2nc3n(n2)Cc2ccccc2-3)cc1` the Potency was inconclusive: 1 µM [cytotoxic, full curve]. For `Cc1cc(C)c2oc(-c3ccc(C)c(NC(=O)/C=C/c4ccco4)c3)nc2c1`, the Potency was inconclusive: 20 µM [cytotoxic, single point]. For `Cc1ccccc1-c1ccc2ncnc(NCc3cccnc3)c2c1`, the Potency was inconclusive: 25.1 µM [cytotoxic, single point]. For `Nc1nc(CN2CCN(c3cccc(Cl)c3)CC2)nc(N2CCCc3ccccc32)n1`, the Potency was “inactive”. With `N#Cc1c(/N=C/c2ccco2)sc2c1CCCCC2` the Potency was inconclusive: 15.8 µM [cytotoxic, partial curve]. For `O=C(CN1CCN(C2CCCCC2)CC1)Nc1ccccc1N1CCCCC1`, the Potency was inconclusive: 20 µM [cytotoxic, single point]. In the case of `Cc1cccc(C)c1OCC(=O)Nc1c(C(=O)c2ccc(Br)cc2)oc2ccccc12`, the Potency is reported as “inactive”. With `C[N+](C)(C)CCC(=O)c1cccc2ccccc12` the Potency was active: 12.6 µM. With `Cc1cnc(NC(=O)COc2ccccc2)s1` the Potency was inconclusive: 12.6 µM [cytotoxic, partial curve]. For `N#Cc1cc2c(nc1SCC(=O)Nc1nccs1)CCCCC2`, the Potency was inconclusive: 3.16 µM [cytotoxic, full curve]. In the case of `CCN1CCN(c2cc(C)c3cc(NC(=O)/C=C/c4cccc(OC)c4OC)ccc3n2)CC1`, the Potency is reported as inconclusive: 22.4 µM [cytotoxic, single point]. For `C=CCc1cccc2cc(-c3nc4ccc(C(=O)O)cc4[nH]3)c(=O)oc12`, the Potency was inconclusive: 10 µM [cytotoxic, partial curve]. With `Cc1csc(NC(=O)CSCC(=O)Nc2ccccc2)n1` the Potency was “inactive”. For `Cc1cc(C(=O)CSc2nnc(-c3cccs3)o2)c(C)n1-c1ccccc1`, the Potency was inconclusive: 15.8 µM [cytotoxic, single point]. With `O=C(Cn1c(=O)n(Cc2ccccc2)c(=O)c2sc3ccccc3c21)Nc1ccc(F)cc1` the Potency was inconclusive: 15.8 µM [cytotoxic, single point]. In the case of `Nc1ncnc2c1nc(Br)n2[C@@H]1O[C@H]2COP(=O)(O)O[C@@H]2[C@H]1O`, the Potency is reported as “inactive”. For `CCCN1CCN(CCCNC(=O)C2CCCN(c3nc4ccc(OCC)cc4s3)C2)CC1` (stereo not drawn), the Potency was inconclusive: 5.01 µM [cytotoxic, partial curve]. For `COc1cc(C(=O)Oc2c(CN3CCOCC3)cc(Cl)c3cccnc23)cc(OC)c1OC`, the Potency was inconclusive: 10 µM [cytotoxic, partial curve]. For `CC(=O)N1CCC(C(=O)Nc2nc(-c3ccccc3)ns2)CC1`, the Potency was inconclusive: 31.6 µM [cytotoxic, single point]. In the case of `CC(C)COc1ccc(C(=O)Nc2nnc(S(=O)(=O)N(C)Cc3ccco3)s2)cc1`, the Potency is reported as inconclusive: 10 µM [cytotoxic, partial curve]. For `CCc1cccc(NC(c2ccccc2)c2nnc(-c3ccccc3F)o2)c1` (stereo not drawn), the Potency was “inactive”. In the case of `COc1cccc(-c2oc3ccc(C)cc3c(=O)c2O)c1`, the Potency is reported as inconclusive: 12.6 µM [cytotoxic, partial curve]. In the case of `O=S(=O)(c1ccc(-c2csc(=Nc3ccc(F)cc3)n2CCCCCCO)cc1)N1CCCC1`, the Potency is reported as inconclusive: 20 µM [cytotoxic, single point]. With `CC(C)c1ccc(NC(=O)C2CCCN2S(=O)(=O)c2ccc3nc(-c4ccccc4)[nH]c3c2)cc1` (stereo not drawn) the Potency was “inactive”. In the case of `N=c1cc(C2(O)CCCCC2)n2c(nc3ccccc32)s1`, the Potency is reported as active: 1 µM. In the case of `CC(C)c1ccc(OCc2nc(-c3ccccn3)no2)c(Br)c1`, the Potency is reported as inconclusive: 25.1 µM [cytotoxic, single point]. In the case of `NC(=O)c1ccsc1NC(=O)COC(=O)c1ccccc1NCc1ccco1`, the Potency is reported as inconclusive: 31.6 µM [cytotoxic, single point]. With `O=C(Nc1ccc2nc3ccccc3nc2c1)c1ccccc1` the Potency was inconclusive: 0.447 µM [cytotoxic, partial curve, poor fit].
